Read counts are not given, so values of variants with three or more changes are uncertain.
B1: OR4K15 (parent)
chain: GUUAACGGUCAUAGGCCAUGGAAACUAGGAGCACCAUUUCGCUGCCAGUGAAGAAAUGAACAAAGAAAAUCUGGGCCAGGCAGGCAUCAAAAGAAAUAGUCUUGCGCUCAACCAGAAAGUCUGUAAUCAUUUUAAGGGUA

Variants of: B1
Assay: self-cleavage, relative activity (ratio to wild type); higher = more cleavage; in vitro, sequencing; the parent is a self-cleaving ribozyme

Variant | self-cleavage
GUUAACAGUCAUUGGCCAUGGAAACUAGGAGCUCCAUUUCGCUGCCAGUGAAGAAAUGAACAAAGAAGAUCUGGGCCAGGCAGGCAUCAAAAGAGAUAGUCUUGCGCUCAACCAGAAAGUCUGUAAUCAUUUUAAGGGUA [G7A A13U A33U A68G A95G] | 1.78
GUUAACGGUCAUAGGCCAUGGAAACUAGGAGCACCAUCUCGCUGCCAGUGAAGAAAUGAACAAAGGAAAUCUGGGCCUGGCAGGCAUCAAAAGAAAUAGUCUUGCGCUCAACCAGAAAGUCUGUAACCAUUUUAAGGGUA [U38C A66G A78U U127C] | 0.4
GUUAACGGUCAUAGGCCAUGGAAACUAGGAGCACCAUUUCGCUGCCAGUGAAGAAAUGAACAAGGAAGAUCUGGGCCAGGCAGGCGUCAAAAGAAAUAGUCUUGCGCUCAACCAGAAAGUCUGUAAUCAUUUUAAGGGUA [A64G A68G A86G] | 1.31
GUUAACGGUCAUAGGCCAUGGAAACUAGGAGCACCAUUUCGCUGCCAGUGAAGAAAUGGACAAAGAGAAUCUGUGCCAGGCAGGCAUCAAAAGAAAUAGUCUUGCGCUCAACCAGGAAGUCCGUAAUCAUUUUAAGGGUA [A59G A67G G74U A116G U122C] | 0.02
GUUAACGGUCAUAGGCCAUAGAAACUAGGAGCACCAUUUCGCUGCCAGUGAAGAAAUGAACAAGGAAAAUCUGGGCCAGGCAGGCAUCAAAGGAAAUAGUCUUGCGCACAACCAGAAAGUCUGUAAUCAUUUUAAGGGUA [G20A A64G A92G U108A] | 0.03
GUUAACGGUCAUAGGCCAUGGAAACUAGGAGCACCAUUUCGCGGCCAGUGAAGAAAUGAACAAAGAAAAUCUGGGCCAGGCAGGCAUCAAAAGAAAUAGUCUCGCGCUCAACCAGAAAGUCUGUAAUCGUUUUAAGGGUA [U43G U103C A129G] | 1.46
GUUAACGGUCAUGGGCCAUGGAAACUAGGAGCACCAUUUCGCUGCCGGUGAAGGGAUGAACAAAGAAAAUCCGGGCCAGGCAGGCAUCAAAAGGAAUAGUCUUGCGCUCAACCAGAAAGUCCGUAAUCAUUUUAAGGGUA [A13G A47G A54G A55G U72C A94G U122C] | 0.2
GUUAAUGGUCAUAGGCCAUGGAAACUAGGAGCACCAUUUCGCUGCCAGUGAAGAAGUGAACAGAGAAAGUCUGGGCCAGGCAGGCAUCAAAAGAAAUAGUCUUGCGCUCAACCAGAAAGUCUGUAAUCAUUUUAAGGGUA [C6U A56G A63G A69G] | 1.27
GUUAACGGUCAUAGGCCAUGGGAACUAGGAGCACCAUUUCGCUGCCAGUGAAGAAGUGAACAAAGAAAAUCUGGGCCAGGCAGGCAUCAAAAGAAAUAGUCUUGCGCUCAACCCGAAAGUCUGUAAUCAUUUUAAGGGUA [A22G A56G A114C] | 0.02
GCUAACGGCCAUAGGCCAUGGAAACUAGGAGCCCCAUUUCGCUGCCAGUGAAGAAAUGAACAAAGAAAAUCUGGGCCAGGCAGGCAACAAAAGAAAUAGUCUUGCGCUCAACCAGAAAGUCUGUAAUCAUUUUAAGGGUA [U2C U9C A33C U87A] | 1.48
GUUAACGGUCAUAGGCCAUGGAAACUAGUAGCACCAUUACGCUGCCAGUGAAGAAAUGGACAAAGAAAAUCUGGGCCAGGCAGGCAUCAAAAGAAAUAGUCUUGCGCUCAACCAGAAAGUCUGUAAUCAUUUUAAGGGUA [G29U U39A A59G] | 1.78
GUUAACGGUCAUAGGCCAUGGGAACUAGGAGCACCAUUUCGCUGCCAGUGAAGGAAUGAACAAAGAAAAUCUGGGCCAGGCAGGCAUCAAAAGAAAUAGCCUUGCGCUCAACCAGAAAGUCUGUAAUCAUUUUAAGGGUA [A22G A54G U100C] | 2.03
GUUAACGGUCAUAGGCCAUGGAAACUAGGCGCACCAUUUCGCUGCCAGUGAGGAAAUGAACAAAGAAAAUCUGGGCCAGGCAGGCAUCGAAAGAAAUAGUCUUGCGCUCAACCAGAAAGUCUGUGAUCAUUUUAAGGGUA [A30C A52G A89G A125G] | 0.06
GUUAACGGUCAUAGGCCAUGGAGACUAGGAGCACCAUUUCGCUGCCAGUGAAGAUAUGAACAAAGAAAAUCUGGGCCAGGCAGGCAUCAAAAGAGAUAGUCUUGCGCUCAACCAGAAAGUCUGUAAUCAUUUUAAGGGUA [A23G A55U A95G] | 0.79
GUUAACGGUCAUAGGCCAUGGAAACUAGGAGCGCCAUCCCGCUGCCAGUGAAGAAAUGAACAAAGAGAAUCUGGGCCAGGCAGGCAUCAAAAGAAAUAGUCUUGCGCUCAACCAGAGAGUCUGCAAUCAUUUUAAGGGUA [A33G U38C U39C A67G A117G U124C] | 0.57
GUUAACGGUCAUAGGCCAUGGAAACUAGGAGCUCCAUUUCGCUGCCAGUGGAGAAAUGAACAAAGAAAAUCUGGGCCAGGCAGGCAUCAAAAGAAAUAGUCUUGUGCUCAACCAGAAAGUCUGUAAUCAUUUUAAGGGUA [A33U A51G C105U] | 0.74
GUUAACGGUCAUAGGCCAUGGAAACUAGGGGCACCAUUUCGCUGCCAGUGAAGAGAUGGACAAGGAAAAUCUGGGUCAGGCAGGCAUCAAAAGAAAUAGUCUUGCGCUCAACCAGAAAGUCUGUAAUCAUUUUAAGGGUA [A30G A55G A59G A64G C76U] | 0.26
GCUAACGGUCAUAGGCCAUGGAAACUAGGAGCACCAUUUCGCUGCCAGUGAGGAAAUGAACAAAGAAAAUCUGGGCCAGGCAGGCAUCAAGAGAAAUAGUCUUGCGCUCAACCAGAAAGUCUGUAAUCUUUUUAAGGGUA [U2C A52G A91G A129U] | 1.21
GUUAACGGUCAUAGGCCAUGGAAACUAGGAGCCCCAUUUCGCUGCCGGUGAAGAUAUGAACAAAGAAGAUCUGGGCCAGGCAGGCAUCAAAAGAAAUAGUCUUGCGCUCAACCAGAAAGUCUGUAAUCAUUUUAAGGGUA [A33C A47G A55U A68G] | 0.71
GUUAACGGUCAUAGGCCAUGGGAACUAGGAGCACCAUUUCGCUGCCAGUGAAGAAAUGAACAAAGAAAAUCUGGGCCAGGCAGGCAUCAAAAGAAAUAGUCUUGCGCUCAACCAGAGAGUCUGUAAUCACUUUAAGGGUA [A22G A117G U130C] | 1.08
GUUAACGGUCAUAGGCCAUGGAAACUAGGAGCGCCAUUACGCCGCCAGUGAAGAAAUGAACAAAGAAAAUCUGGGCCAGGCAGGCAUCAAAAGAAAUAGCCUUGCGCUCAACCAGAAAGUCUGUAAUCAUUUUAAGGGUA [A33G U39A U43C U100C] | 2.19

Reference: the RNAGym collection of RNA variant scans (doi:10.7554/elife.90254)
